# Assay results taken from PubChem BioAssay AID651567 (National Center for Advancing Translational Sciences (NCATS), 2012).
# In all, about 1,200 compounds went through this assay and about 10 (0.8%) were called active. About 4% were inconclusive and are not listed. Calls come from the whole dose curve; as a rule, active = well fitted inhibition curve with a large enough effect; inconclusive = small, poorly fitted or top-dose-only effect; inactive = no such curve, though single readings can be large or run the other way. Some of the results follow.
# Assay: qHTS Assay to Find Inhibitors of Chronic Active B-Cell Receptor Signaling: Hit Validation in OCI-Ly3 Assay
# Conditions: OCI-Ly3 IkB-luciferase reporter, Chroma-Glo luminescence, 4 h; series mostly up to 46.1 µM; activity change, negative = inhibition: at the top concentration
# Summary of the method: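 Readout is dual-colour luminescence: IkB-alpha-luciferase fusion (green) against unfused luciferase (red), plus their ratio, scaled between basal cells and 10 uM MG-132. OCI-Ly3 cells, 0.5% FBS IMDM, compound with doxycycline (80ng/ml solution), 4 hrs at 37C; curves fitted and classed.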
# % is set by controls: 0 for no effect and ±100 for the full control effect; potency is the fitted concentration of half-maximal effect.
SMILES,"activity change, negative = inhibition",Potency
COc1cc2c(cc1OC)C(/C(C#N)=N\O)=NC(C)(C)C2,inactive: -0.106%,
Cc1c(NC(=S)NC(=O)C(c2ccccc2)c2ccccc2)cccc1C(=O)O,inactive: 0.384%,
OCc1ccnc2c(O)cccc12,inactive: 0.198%,
O=C(OCC(=O)c1ccc[nH]1)c1ccc(Cl)c(Cl)c1,inactive: -3.15%,
CCC1=Nc2cc(C(=O)NCc3cccnc3)ccc2Sc2ccc(C)cc21,inactive: -7.04%,
CCOc1cccc(C2CC(=O)Nc3cc(OC)c(OC)cc32)c1 (configuration not stated),inactive: -0.445%,
Clc1ccc(C2=Nn3c(nnc3-c3cc(-c4ccccc4)n[nH]3)SC2)cc1,inactive: -5.82%,
CCN(CC(=O)NCc1ccc(F)cc1)C(=O)/C=C/c1ccc(OC)c(S(=O)(=O)NC(C)C)c1,inactive: -1.47%,
COc1cc2c(cc1OC)-c1cc(NC3CCCC3)nc(=O)n1CC2,inactive: -0.848%,
COC(=O)c1cc(C(=O)N2CCN(c3cccc(Cl)c3)CC2)cc([N+](=O)[O-])c1,inactive: -3.03%,
Cc1cc(C(N)=O)nn1-c1c(Cl)cc(Cl)cc1Cl,inactive: -0.427%,
CCOc1ccc(S(=O)(=O)Nc2cc(OC)ccc2OC)cc1,inactive: -2.95%,
COc1cccc(N2CCN(C(=O)c3ccc(CS(=O)c4ccc(Cl)cc4)o3)CC2)c1 (configuration not stated),inactive: -2.77%,
COc1ccccc1NC(=O)c1c(N=Cc2c(O)ccc3ccccc23)cnn1C,inactive: -2.72%,
COc1ccc(C2CC(c3c(O)cc(C)oc3=O)=NCCS2)c(OC)c1 (configuration not stated),inactive: -3.45%,
COc1cc(Nc2c3c(nc4ccccc24)CCC3)cc(OC)c1OC,inactive: -6.46%,
Oc1ccccc1-n1c(-c2ccccc2)ccc1-c1ccccc1,inactive: -1.51%,
COc1cc(C(=O)N/N=C/C2CC=CCC2)cc(OC)c1OC (configuration not stated),inactive: -1.17%,
Cc1cc(C)c2nc(C(F)(F)F)nc(NCCCN3CCOCC3)c2c1,inactive: -0.777%,
COc1ccc(C2=Nn3c(nnc3-c3ccc(OC)cc3)SC2)cc1,inactive: -4.92%,
C=CCNC(=S)N/N=C/c1cn(C)c2ccccc12,inactive: -0.555%,
Cc1ccccc1Nc1nc(N)nc(COC(=O)c2cccc(S(=O)(=O)N(C)C)c2)n1,inactive: -0.606%,
CCc1cc2c(SCC(=O)Nc3ccc(NC(C)=O)cc3)ncnc2s1,inactive: -0.445%,

SMILES,"activity change, negative = inhibition",Potency
CN(CC(=O)Nc1ccc2c(c1)OCCO2)Cc1nc2ccccc2c(=O)[nH]1,inactive: -0.289%,
CCN(CC)c1ccc2cc(-c3nc4ccccc4n3C)c(=O)oc2c1,inactive: -1.04%,
COc1cc(C(=O)O/N=C(\N)c2ccc([N+](=O)[O-])cc2)cc(OC)c1OC,inactive: -0.586%,
COc1cc(OC)cc(C(=O)N[C@H](C(=O)Nc2nc3ccccc3[nH]2)C(C)C)c1,inactive: -2.01%,
Cc1ccc(C)c(Cn2c(=O)n(-c3ccc(CC(=O)NCc4ccco4)cc3)c(=O)c3sccc32)c1,inactive: -0.0393%,
COc1cc2c(c(OC)c1OC)-c1ccc(OC)c(=O)cc1[C@@H](N(C)CC#CCO)CC2,inactive: -1.53%,
O=C(Nc1ccc(N2CCCC2)cc1)c1cc(Cl)ccc1Cl,inactive: -1.28%,
O=C(CSc1cccc[n+]1[O-])CSc1cccc[n+]1[O-],inactive: -1.14%,
N#CCCn1cc(/C=N/NC(N)=S)c(-c2ccc(Br)cc2)n1,inactive: -1.51%,
O=C(NN=C1CCCC1)c1n[nH]c2c1CCC2,inactive: 0.023%,
COc1cc(C(=O)NCc2cc(C)nc3ccccc23)cc(OC)c1OC,inactive: -1.47%,
NC(=O)NC[C@@H]1CC[C@@H](Cc2ccc(-c3ccccc3)cc2)O1,inactive: -0.286%,
Cc1[nH]n(C(N)=S)c(=O)c1N=Nc1cccc(Cl)c1,,active: 20.6 µM
CCNC(=O)[C@H]1O[C@@H](n2cnc3c(N)nc(NCCc4ccc(CCC(=O)O)cc4)nc32)[C@H](O)[C@@H]1O,inactive: -0.664%,
CCC(C)NC(=O)c1ccccc1NC(=O)c1ccc(CSc2ccccc2)cc1 (configuration not stated),inactive: 0.779%,
CC1=NN(C(N)=S)C(=O)C1N=Nc1ccc(C)c(Br)c1 (configuration not stated),inactive: -3.08%,
COc1cc(NC(=O)CSc2nc3[nH]ncc3c(=O)n2-c2ccccc2C)cc(OC)c1OC,inactive: -0.526%,
CC1=CC(C)(C)N(S(=O)(=O)c2ccc(C)cc2)c2ccccc21,inactive: -3.65%,
C=CCn1c(O)c(N=NC(=S)Nc2ccccc2F)c2cc(S(=O)(=O)N3CCOCC3)ccc21,inactive: -11%,
COC(=O)c1ccc(C)c(NS(=O)(=O)c2ccc3c(c2)OCCO3)c1,inactive: -3.3%,
NC(=S)N=Nc1c(O)n(Cc2ccc(Br)cc2)c2ccccc12,inactive: -6.42%,
CN(C(=O)c1ccc(-c2nn(C)c(=O)c3ccccc23)cc1)C1CCCCC1,inactive: -0.996%,
Cc1noc(C)c1CSc1ncnc2ccccc12,inactive: -0.785%,

SMILES,"activity change, negative = inhibition",Potency
CS(=O)(=O)C1=C(O)C(=O)N(c2ccccc2)C1c1ccccc1 (configuration not stated),inactive: -0.401%,
COc1c(Cl)cc(C(=O)NN)cc1Cl,inactive: -0.427%,
C=CCN(C(=O)CSC1=NC(=O)CN1C(C)=O)c1nc(C)c(-c2ccccc2)s1,inactive: -0.952%,
COc1ccc(C2=NC(C)(C)Cc3cc(OC)c(OC)cc32)cc1OC,inactive: 0.417%,
COc1ccc(CCNC(=O)Cn2c(=O)cnc3ccccc32)cc1,inactive: -0.695%,
CCN(CC)c1ccc(NC(=O)CN2CCN(CC(=O)Nc3ccccc3F)CC2)cc1,inactive: -1.99%,
CCOC(=O)COc1cccc2c(=O)n(CC(=O)NCc3ccccc3)ccc12,inactive: -1.42%,
Cc1cccc(C)c1NC(=O)CNC(=O)CNC(=O)Cc1cccc2ccccc12,inactive: -0.0296%,
COc1cc2c(cc1OC)C(c1ccc(OC)c(OC)c1OC)CC(=O)N2 (configuration not stated),inactive: -0.252%,
C/C(=N\N1C(=O)c2ccccc2NC1c1ccco1)c1ccccc1O (configuration not stated),inactive: -0.879%,
CCOc1cc(-c2nnc(SCC(=O)NCc3ccccc3)nc2-c2ccc(OC)c(OCC)c2)ccc1OC,inactive: -3.71%,
COC(=O)c1ccc(C)c(NS(=O)(=O)c2ccc(OC)cc2)c1,inactive: -4.42%,
Oc1[nH]c2ccc(Br)cc2c1N=NC(=S)Nc1ccc(F)cc1,inactive: -1.74%,
COc1ccc(N2CC(C(=O)N3CCC(c4nc5ccccc5[nH]4)CC3)CC2=O)cc1 (configuration not stated),inactive: 0.0151%,
CCOc1ccc2nc(N3C(=O)CNC3=S)sc2c1,inactive: 23.2%,
COc1ccc(/C=C/C(=O)c2cc(F)ccc2OC(=O)c2ccccc2OC)cc1OC,inactive: -23%,
COC(=O)COc1cccc2c(=O)n(CC(=O)NCc3ccccc3)ccc12,inactive: -0.758%,
CCOC(=O)c1ccc(NC(=S)NNC(C)(C)C)cc1,inactive: -0.0435%,
CCOC(=O)C1=C(O)c2ccccc2C(=O)/C1=C\c1ccc(CC)cc1,inactive: -7.74%,
O=c1cnnc(N/N=C/C2CC=CCC2)[nH]1 (configuration not stated),inactive: -0.849%,
CN(C)/C=N/c1sc2c(c1C#N)CCCC2,inactive: -0.499%,
